# Assay results from the supplement of paper PMC11417369.
# ± gives the standard deviation of the averaged measurements. The list shows a part of the results.
# Tested on: PfAP2-I AP2 domain 3 (GST-tagged)
# Test: gcPBM binding intensity (ln(normalized median fluorescence intensity)); higher = stronger DNA binding
# Outline: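 Binding intensity is defined as the maximum Masliner-normalised natural-log median intensity across replicate spots for either probe orientation. It was measured on an Agilent 4 × 180k array of primer-extended double-stranded 36-bp intergenic genomic probes and negative controls, to which GST-tagged P. falciparum DNA-binding domains made in E. coli were applied for 1 h in 1× PBS with 1% milk, 0.2 mg/ml BSA, 0.5% salmon testes DNA and 0.03% Triton X-100. Detection was by Alexa488 anti-GST antibody and scanning at 488 nm.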
row,Sequence,gcPBM binding intensity (ln)
1,CATATATGTGATAACACGCACACAAATGTATAGAAT [CACACA_site2594],7.96 ± 0.57
2,GTTCATCACATATACACATGCATATTCTAATATGTA [TGCATGCA_site809],8.34 ± 0.53
3,ACATTATATAAAATATGTACATATAAAAAATTCTAT [XGTACX_site1617],7.95 ± 0.38
4,TTAATTTTTGAAGGTACACACTAATATATTAAATAT [CACACA_site4791],7.89 ± 0.54
5,TTATCCCCCTATCATTGTACATTAATACAAACTAAA [XGTACX_site5630],8.85 ± 0.12
6,AAAATGAAACAAATATGTACACATATAAATATTTCC [XGTACX_site54],7.55 ± 0.54
7,AAAACAGACAAACACACACACACATATATATATATA [CACACA_site3393],9.43 ± 0.4
8,CTTTTAATTATAAAATGTACTTAAAAATAATAATAC [XGTACX_site635],7.91 ± 0.13
9,ATATTTGTAATTATTAAACACACACTAATTATATAT [CACACA_site8803],7.84 ± 0.51
10,TTTTATGAAAAATGGCTTATCTGTAAAGAAGTGGAG [CACACA_negctrl_site1586],8.04 ± 0.47
11,ATAAAGAAAATATGGAGTACATTTATATCCAATATA [XGTACX_site3085],7.72 ± 0.28
12,AAATATATACTACCGATGCACTAAATATAAACACAT [GTGCAC_site9777],8.88 ± 0.5
13,AAGAATTATATATTCACACAAAAAAAAAGTAAAAGA [CACACA_site5335],7.82 ± 0.58
14,AAAAAAAAAAAAAAGAGTACATTTATTTATATATCT [XGTACX_site2381],7.93 ± 0.38
15,TGTTTAACACATGTTTCAAACAAAAAAAAAAAGACA [CACACA_negctrl_site1356],7.73 ± 0.52
16,AATATATTAAATCTTACACACTAAAAAATATGTAAC [CACACA_site4325],7.53 ± 0.57
17,TTTTAACATAGAAGTACACACATATAATCAATCATA [CACACA_site5313],7.995 ± 0.078
18,TATAATATATATATATGTACATATTATTTACATATA [XGTACX_site7312],7.71 ± 0.4
19,TTTTAAATTTTTTAAAGTACACGTCGAAAAGGTATA [XGTACX_site76],8.43 ± 0.23
20,TATTATATATATGGAAGTACAGGTATATCGTTTTTC [XGTACX_site3771],7.93 ± 0.66
21,TTTTTTTTTCGCTTTTGTACACATTTTATAGAACAG [XGTACX_site2416],8.29 ± 0.53
22,TTTTCCCTTAACCTCTGTACATATAATTTTCTTTCC [XGTACX_site4180],8.11 ± 0.73
23,AAATATTTTTTAATTGTTCACTTGGTGGATCATTAA [CACACA_negctrl_site922],9.44 ± 0.84

row,Sequence,gcPBM binding intensity (ln)
1,TATCCATTATTTAAAAGTACAAAAAACGATTTACAC [XGTACX_site2979],7.92 ± 0.56
2,ATTTTTTTTTTTTTTTCATGAAATTTTTTTTTTTTT [CACACA_negctrl_site1069],7.5 ± 0.57
3,TTAAAAAAAAATAAAGGTACACGGAGAAATCCTTTT [XGTACX_site7509],7.51 ± 0.76
4,ATATATTTATTATTAGGTACACATATATATATATAT [XGTACX_site5045],9.23 ± 0.23
5,TGTAGTAATGCTTATTGTACATATACATTTCTTACA [XGTACX_site219],7.79 ± 0.46
6,TTATATAGAATTAATTTCTTTTTTTTCTTTTTTAAA [CACACA_negctrl_site1308],7.24 ± 0.54
7,AACCACCACACCATCACACATAAGATTAGACGAGTA [CACACA_site6063],8.03 ± 0.48
8,TCTAATGATATATACACACACATATAGATTTATATA [CACACA_site7044],7.75 ± 0.33
9,ATTTTTCTAAAATACTGTACAAAGGTGCATAAAAAG [XGTACX_site4425],11.8 ± 0.87
10,TTTTCTGTTTTCATTACACACCTTACAAGAACAATA [CACACA_site2158],8.34 ± 0.52
11,ATATTTATGGAATATACACACATGTATAATTATATA [CACACA_site2033],7.67 ± 0.51
12,TGCTTTTCTTTTTGCACACTTATGCATATATATATA [CACACA_site2583],10.46 ± 0.014
13,AAATAAGAAAAAGCGCGTACACATAACATTTTTATA [XGTACX_site8807],7.82 ± 0.54
14,TTTATTCAAGGAATAGTGCATAATAATAAGTATTAT,11.2 ± 0.62
15,TGTATTCTCTTAGTAGTGCATTTGAAGATTATATAA,10.1 ± 0.37
16,TAGAATATGTTTAGTTGTACAAAACAAAATGGAATT [XGTACX_site5293],7.76 ± 0.59
17,ATTTATTTTTTGTGTTCACACATTAGTATCATCTAT [CACACA_site5274],7.68 ± 0.57
18,CACATAAAAAAATAAACACACATATGTATATATATA [CACACA_site3177],8.8 ± 0.18
19,ACTTTTTTGAACAACGTGCACGTATTCATAACAAAA,9.61 ± 0.38
20,ATCAGATATATATATTGTACATTTATATATAAATCA [XGTACX_site1960],7.61 ± 0.44
21,ATTAAAAATTATATTTTATAAAAATTAAAAGAAATA [CACACA_negctrl_site65],7.57 ± 0.35
22,ATAGGATGTTTGCACTGTACCAAAAAATGAGCTGCA [XGTACX_site2825],9.88 ± 0.32
23,ATTTATTTATCTAGCTATTCACCATTTTCTTTTGTT [CACACA_negctrl_site1259],7.78 ± 0.54

row,Sequence,gcPBM binding intensity (ln)
1,AAAGTATACAATGACGCATGCATATATATATACATA [TGCATGCA_site429],7.52 ± 0.64
2,TTTTTTAAAGCCTGTTCATCATCCTTACCTATCAAC [GTGCAC_negctrl_site452],7.84 ± 0.65
3,TATTTTTTCTTAAACACACACATATAGATTTATAAC [CACACA_site7354],7.89 ± 0.48
4,TGTCCTTATTGGCACACACACATATAAGAAATTTAA [CACACA_site5724],8.45 ± 0.071
5,ACCCTATTTATATATACACACACATATATAAATAAA [CACACA_site8980],8.24 ± 0.36
6,CTAATTCGTATATGCTGTACCTTTTTCTTACGACTA [XGTACX_site4392],8.15 ± 0.74
7,ATATGGAATGATCATAGTACATAATTTAAAATTTTA [XGTACX_site3568],7.52 ± 0.59
8,AACATATATAATATTTGTACTTATATACAAAATATG [XGTACX_site7502],7.53 ± 0.28
9,AAAATTGTGAAAGGGAAGATGATCAAATTGTTAAGG [CACACA_negctrl_site1492],7.71 ± 0.79
10,GATGGGCAAATTTACTGTACTTTTATAATATTTTTT [XGTACX_site4830],8.14 ± 0.53
11,TATAATGGTAAAAACACACAAATATGAAGATGTTAA [CACACA_site6479],7.51 ± 0.61
12,GTACCTATAAATATTACACACATTTTCATTTTTAAC [CACACA_site7022],8.3 ± 0.48
13,AAAAAAAATTATATTTGTACGCATTAAAAAATCTAA [XGTACX_site1616],7.64 ± 0.26
14,CTTAAAAACAAAAATGCACACATAATAAGCATATGT [CACACA_site9149],8.46 ± 0.13
15,TGAAATTAGATATATACACACATATAGATTTATATG [CACACA_site7619],7.47 ± 0.51
16,ATTAAACTCATTAAGAGTACAGATAACATTAAAGTA [XGTACX_site8697],7.68 ± 0.51
17,ATAAATACGATTAATTAGGTTTGTATAAATTAAATT [GTGCAC_negctrl_site635],7.5 ± 0.47
18,AATATCACATTCCACGGTACACACTAAAAGAAAAAT [XGTACX_site7653],8.28 ± 0.5
19,ATAACTTTTGCGCGTACACACATTTATCCTCTTTAT [CACACA_site209],8.63 ± 0.66
20,TCATGTAGTAAAAACTGTACAAATTATTTATCATGT [XGTACX_site1727],7.74 ± 0.56
21,TTTCATTTTAGAAGTACACACAAAAAATAAAATAAT [CACACA_site2141],8.21 ± 0.2
22,CTATAATAGAAGTGTACACACATATTTATGTCTGTA [CACACA_site7462],7.7 ± 0.33
23,TTTTCTTTATTATAATGTACTCACAAATAAATATAA [XGTACX_site7298],7.96 ± 0.38

row,Sequence,gcPBM binding intensity (ln)
1,ATAAATTGATTCAACACACACATATGTAGGAAGTTA [CACACA_site3253],7.66 ± 0.51
2,AAAAAAAAAAAAAGTACACACATACAGATAAATATA [CACACA_site5067],8.19 ± 0.014
3,TTTTTTAAATTGGTAGTGCAATATGATTGAACAAAA [GTGCAC_site9715],10.9 ± 0.79
4,GGGTATACCAATATAACACACATATATATATAATAT [CACACA_site450],7.93 ± 0.54
5,AAATTATTAAAAAAGTGTACATATTTTTATAATACC [XGTACX_site5610],8.04 ± 0.45
6,ATAAGCATACATATTACACACATATAACATCTATAT [CACACA_site7219],7.93 ± 0.66
7,TATTTTTTTTCAAAAAAGTTTATTTAGAACTAAATA [XGTACX_negctrl_site487],7.18 ± 0.46
8,TTAATCAAATTACTATGTACATAAAACATATAAGAA [XGTACX_site381],7.75 ± 0.54
9,ATAGTTAAAAAAAAAAAAAAAAAAAAAAGAGAGAGA [CACACA_negctrl_site1307],8.16 ± 0.36
10,ACAATAAAGAACAGTATGCACTTTTATGCATGCGTA,10.4 ± 0.24
11,AAATATACATACATATGTACATATATATATATATAT [XGTACX_site8202],9.43 ± 0.76
12,CTTTTTCTTTTCCGGCGTACAGACTTAGTAGTAGAT [XGTACX_site2268],8.34 ± 0.39
13,ACTAATACATAAAAAAGTACAAATATGAGTATTAAC [XGTACX_site7281],7.78 ± 0.6
14,AATATTCAATATAAAGTGCATTATTGTGGACCTAAT,11.3 ± 0.65
15,TATATAGCTAAAAACACACAAATATGTACACATAAA [CACACA_site7665],7.79 ± 0.37
16,TACATGCAAAAAATTCCACACACACCCCCACATATA [CACACA_site8329],9.27 ± 0.15
17,TAAAATATAGGAAATACATGCATATTAAATATTCCT [TGCATGCA_site1057],7.71 ± 0.57
18,TACTTCATTCATTTTACACACATATAAACCCTTTTA [CACACA_site3229],8.03 ± 0.58
19,TAGAAAATCAGTTAAACACACACATAAAAAAAAAAA [CACACA_site8933],8.06 ± 0.68
20,TTCTTATTTGTACTAGTGCAATAGAAAATAAATAAA [GTGCAC_site9731],10.9 ± 0.49
